Measurements from publication PMC4336329 (PLoS ONE, 2015).
The whole screen tested about 310,000 compounds, of which about 2,200 (0.71%) showed an effect of 50% or more. Effects have a minus sign here. Some of the results follow.

The compounds below were run against human ether-à-go-go-related gene (hERG) potassium channel (human, UniProt Q12809) (assay: primary screen, population patch clamp on CHO cells stably expressing hERG).
human ether-à-go-go-related gene (hERG) potassium channel, sequence (Q12809 whole entry, looked up): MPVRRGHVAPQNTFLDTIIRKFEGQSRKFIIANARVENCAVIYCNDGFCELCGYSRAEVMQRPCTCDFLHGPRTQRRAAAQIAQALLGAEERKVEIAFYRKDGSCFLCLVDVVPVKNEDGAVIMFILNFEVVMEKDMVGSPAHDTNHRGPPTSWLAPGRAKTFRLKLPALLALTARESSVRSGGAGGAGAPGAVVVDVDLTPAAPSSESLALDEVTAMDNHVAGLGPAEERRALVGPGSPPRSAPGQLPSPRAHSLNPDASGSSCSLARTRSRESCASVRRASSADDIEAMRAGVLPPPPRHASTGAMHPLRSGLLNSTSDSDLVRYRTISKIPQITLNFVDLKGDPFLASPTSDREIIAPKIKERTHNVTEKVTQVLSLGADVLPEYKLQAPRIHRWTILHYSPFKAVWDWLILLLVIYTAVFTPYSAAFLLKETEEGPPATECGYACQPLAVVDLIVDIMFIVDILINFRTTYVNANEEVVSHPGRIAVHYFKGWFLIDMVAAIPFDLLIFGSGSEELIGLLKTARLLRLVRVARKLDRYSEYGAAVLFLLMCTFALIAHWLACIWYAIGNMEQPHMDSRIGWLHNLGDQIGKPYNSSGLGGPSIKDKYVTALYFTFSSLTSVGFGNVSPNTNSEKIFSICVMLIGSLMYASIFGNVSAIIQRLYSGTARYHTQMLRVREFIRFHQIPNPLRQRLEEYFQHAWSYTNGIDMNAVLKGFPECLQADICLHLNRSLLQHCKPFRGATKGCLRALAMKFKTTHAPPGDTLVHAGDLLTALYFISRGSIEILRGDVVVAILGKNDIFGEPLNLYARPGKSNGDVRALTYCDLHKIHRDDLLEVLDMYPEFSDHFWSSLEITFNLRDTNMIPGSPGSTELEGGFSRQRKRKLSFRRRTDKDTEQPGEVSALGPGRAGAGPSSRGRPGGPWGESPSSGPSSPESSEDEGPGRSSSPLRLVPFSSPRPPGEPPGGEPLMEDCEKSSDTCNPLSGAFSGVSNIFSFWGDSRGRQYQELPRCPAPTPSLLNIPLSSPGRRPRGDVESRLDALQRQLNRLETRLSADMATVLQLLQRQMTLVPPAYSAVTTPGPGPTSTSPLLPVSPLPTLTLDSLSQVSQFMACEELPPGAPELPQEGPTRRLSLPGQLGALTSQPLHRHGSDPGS

Compound	hERG current change (%, negative = inhibition) at 1uM
O=C1/C(=C/c2ccccc2Cl)SC(=S)N1CCC(=O)N1CCCCC1CCO (centres unmarked)	4.17%
COc1cc(/C=C(\C#N)C(=O)Nc2ccccn2)ccc1O	10.7%
Cc1ccc(S(=O)(=O)N2CCN(C(=O)CSc3nc4ccccc4c(=O)[nH]3)CC2)c(C)c1	11.6%
CCCn1nc2cc(C(=O)NCc3ccc(C)cc3)ccc2c1OC	5.99%
O=C1CCN(Cc2nnnn2CC2CCCO2)c2ccccc2N1 (centres unmarked)	8.7%
COC(=O)c1cc(OC)c(OC)cc1NC(=O)CSc1nnnn1Cc1ccccc1	6.4%
Cc1ccc(C)c(NC(=O)c2ccc3c(c2)N(Cc2ccc(F)cc2)C(=O)CS3=O)c1 (centres unmarked)	4.87%
S=c1[nH]c(-c2ccccc2)cn1/N=C/c1cccs1	11.4%
CC(=O)c1cc(C)ccc1OC(=O)CCN1C(=O)C2C3c4ccccc4C(c4ccccc43)C2C1=O (centres unmarked)	-10.9%
Cc1cccc(NC(=O)C2CCCN2C(=O)Oc2ccccc2)c1C (centres unmarked)	1.21%
C/C=C(/C)C(=O)Nc1cccc(C2=NOC3(C2)C[C@@H](C(N)=O)N(C(=O)CC)C3)c1 (some centres unmarked)	7.9%
CC(C)c1cc(C(=O)N/N=C/c2ccoc2)c(O)c(C(C)C)c1	10.4%
COc1cc(C2NC(=O)NC(c3ccccc3)=C2C(C)=O)c(Br)c(Br)c1O (centres unmarked)	16.8%
CCc1ccc2nc(NC(=O)C3CSC4(C)CCC(=O)N34)sc2c1 (centres unmarked)	-10.5%
O=C(c1ccco1)N1CCCC(c2nc(-c3ccc(S(=O)(=O)NCc4ccccc4)cc3)no2)C1 (centres unmarked)	2%
COc1ccc(S(=O)(=O)/N=C2\C=C(Nc3ccc(O)cc3)C(=O)c3ccccc32)cc1	2.25%
CN(C)CCNC(=O)C(=O)NCC1OCCN1S(=O)(=O)c1cc(F)ccc1F (centres unmarked)	10.9%
C[C@H](NC(=O)c1ccc2c(c1)OCO2)c1nnc2ccccn12	7.68%
COCCCN1C(=O)c2ccc(C(=O)OCC(=O)NCCc3ccccc3)cc2C1=O	10.1%
Cc1cccc(C)c1OCc1cc(C(=O)N2CCN(c3ccc(F)cc3)CC2)no1	10.9%
O=C(Cc1c(F)cccc1Cl)Nc1ccccc1C(=O)N1CCOCC1	7.79%
CSCCC(NC(N)=O)C(=O)NCc1ccc(Cl)cc1 (centres unmarked)	8.54%
Cn1c(C(=O)N2CCC(C(=O)N3CCOCC3)CC2)cc2sccc21	9.54%

Compound	hERG current change (%, negative = inhibition) at 1uM
CCCNC(=O)c1n[nH]c2c1CC(C(C)(C)CC)CC2 (centres unmarked)	14%
Cc1noc(C)c1CSCC(=O)Nc1nc2ccc(S(C)(=O)=O)cc2s1	22.5%
Cc1ccc(NC(=O)CSc2nnc(Cc3ccccc3)c(=O)[nH]2)c(C)c1	-6.8%
Cc1ccc(CNC(=O)C2CCN(c3nc(C)cc(C)n3)CC2)cc1	8.85%
CC(=O)c1cc2c(cc1NC(=O)C1CCC1)OCO2	17.3%
Clc1ccc(OCC#CCN2CCCC2)cc1.O=C(O)C(=O)O	6.95%
COc1ccc(Nc2nc(NCc3ccco3)nc(N3CCOCC3)n2)cc1	10.4%
Cc1ccccc1NC(=O)C1CCN(S(=O)(=O)c2cccs2)CC1	5.22%
O=C(O)c1cnc2ccccc2n1	16.3%
COc1ccc(CNc2nc(-c3ccccc3)nn2C(=O)c2ccc([N+](=O)[O-])cc2)cc1	11.3%
CCn1c(=O)cc(SCC(=O)Nc2ccc3c(c2)OCO3)c2ccccc21	-12.6%
CCCNc1c(NS(=O)(=O)c2ccc(NC(=O)CC)cc2)c(=O)oc2ccccc12	-10.6%
CCCCOc1ccc(/C=C/C(=O)Nc2ccc([N+](=O)[O-])cc2C)cc1	10.9%
CCc1cc2c(NCC(=O)O)ncnc2s1	5.29%
Cc1cc(C)n(-c2ccc(C(=O)N3CC(C)OC(C)C3)cc2)n1 (centres unmarked)	8.76%
O=C(NC1CCCCC1)c1ccc(Cn2cc(Cl)cn2)cc1	-0.404%
CC(=O)NC(CC(C)C)C(=O)NC(=O)NCc1ccccc1 (centres unmarked)	-2.43%
CCN(CC(=O)Nc1c(F)cccc1F)C(=O)CCN1C(=O)C2CCCCC2C1=O (centres unmarked)	13.2%
Cc1nc(-c2ccc(S(=O)(=O)Nc3cc(S(=O)(=O)N(C)C)ccc3C)s2)cs1	9.27%
O=C(O)c1ccc(Nc2ccc3nonc3c2[N+](=O)[O-])cc1	11.3%
CCc1ccccc1NC(=O)CN(C)C(=O)c1cc(C2CC2)nc2c1cnn2C(C)C	8.14%
Cc1ccsc1C(=O)N(CC(C)C)c1c(N)n(Cc2ccccc2)c(=O)[nH]c1=O	16.4%
CCOC(=O)CN1C(=O)N(CC)C(C)=C(C(=O)OC)[C@@H]1c1ccccc1	8.3%

Compound	hERG current change (%, negative = inhibition) at 1uM
O=c1cc(NCCc2ccccc2)c2ccccc2o1	9.47%
O=C(O)c1cn(-c2ccccc2)nc1-c1ccc(F)cc1	12.3%
O=C(NCc1ccc2c(c1)OCO2)C1CCN(c2ncccn2)CC1	3.06%
O=C(NC1CCCCC1)N1CCN(c2nc(-c3ccccc3)cs2)CC1	14.3%
CCN1CCN(C(=S)Nc2ccc(C(C)=O)cc2)CC1	18.5%
COCCNC(=O)CN1N=C(c2ccc(C)cc2)CCC1=O	-3.37%
Br.CC(C)(C)C(=O)Cn1c(=N)n(Cc2ccccc2)c2ccccc21	-17%
CNC(=O)CN(c1cc(OCCOC)c(Cl)cc1Cl)S(=O)(=O)c1ccccc1	3.37%
COC(=O)c1ccc(CN2C(=O)NC(c3ccccc3)(c3ccccc3)C2=O)o1	8.23%
N#CCn1c2ccccc2c2nc3ccccc3nc21	4.98%
CCCS(=O)(=O)N1CCN(C(=O)COc2ccccc2)CC1	-5.82%
Cc1cc(NS(=O)(=O)c2ccc(NC(=S)NC(=O)c3ccc(F)cc3Cl)cc2)no1	12.8%
CCCCCCOc1ccc(/C(C)=N/NC2=NCCN2)cc1	11.7%
CCCN(CCC)Cc1c(C(=O)N/N=C/c2ccsc2)nnn1-c1nonc1N	-7.79%
CC1(C(=O)N2CCN(c3ccccc3)CC2)CC1(Cl)Cl (centres unmarked)	10.3%
O=Cc1cccn1-c1ncc(Br)cn1	-6.11%
CCOC(=O)CC(=O)CSCC(=O)Nc1ccc(C)cc1	-6.25%
CP(C)(=O)CCP(=O)(c1ccccc1)c1ccccc1	16.9%
CCOCCCNS(=O)(=O)c1ccc(NC(=O)CN2C(=O)c3ccccc3C2=O)cc1	15.7%
O=C(Nc1cc(-c2ccccc2)sc1C(=O)O)c1cccc(F)c1	15.2%
CCCCSc1cc(C)nc(N)n1	2.62%
CCN(CC)C(=O)c1cc2cc([N+](=O)[O-])ccc2s1	-7.17%
CCOc1ccc(C(C)=O)cc1COc1ccc(-c2nnco2)cc1	17%

Compound	hERG current change (%, negative = inhibition) at 1uM
COc1ccc2c(c1OC)C(=O)N1c3ccccc3N=C(c3ccc([N+](=O)[O-])cc3)CC21 (centres unmarked)	-10.7%
O=C(NCCn1cc(SCc2ccccc2)c2ccccc21)c1c(F)cccc1F	4.88%
Cc1ccccc1NC(=O)CSc1n[nH]c(-c2ccccn2)n1	-3.55%
Cc1cccc(C(=O)N/C(=C\c2ccc(C)o2)C(=O)O)c1	12.8%
CSc1cccc(NC(=O)NNC(=O)C2CCN(S(=O)(=O)N(C)C)CC2)c1	16%
Nc1nc(SCC(=O)NCc2ccccc2)[nH]c(=O)c1NC(=O)c1ccccc1F	16.6%
Cn1c(COc2ccc(F)cc2)nnc1SCC(=O)NC1CC1	-3.08%
COc1ccc(S(=O)(=O)N2CCCCC2)cc1NC(=O)CNc1ccccc1C(C)=O	-2.43%
O=C(CCN1C(=O)c2ccccc2S1(=O)=O)Nc1ccccc1	12.7%
COc1ccc(CCNC(=O)CCCOc2ccc(C)cc2)cc1OC	2.82%
Cc1cc(Cl)c2ccc3ccccc3c2n1	16.1%
C=CCNC(=O)NC(=O)Cn1c(=O)c2c(ncn2CC)n(Cc2ccccc2)c1=O	-0.954%
Cc1nnc2ccc(-c3cccc(NC(=O)c4ccc(Cl)nc4)c3)nn12	-1.98%
Cc1ccc(C)c(S(=O)(=O)N2CCN(CC(=O)Nc3sccc3C#N)CC2)c1	-17.6%
C/C=C/C=C(/NC(=O)c1ccccc1)C(=O)Nc1ccccc1	12.4%
Cc1ccc(CC(=O)Nc2cccc(C)n2)cc1	8.71%
Cn1c(CNc2cccc(C(F)(F)F)c2)n[nH]c1=S	10.8%
CC(C)(C)n1nnnc1C(c1cccs1)N(Cc1ccccc1)Cc1cccnc1 (centres unmarked)	4.59%
O=C(CN1C(=O)COc2ccccc21)NC1CCCC1	13.6%
CCOC(=O)C1C(=O)C=C(c2cccs2)CC1c1ccccc1C (centres unmarked)	10.6%
